# The whole screen tested about 120,000 compounds, of which about 5,300 (4.4%) were called active. Inconclusive means that the source gave no clear call. Such entries were picked first, then a sample of the others. Calls come from the whole dose curve; as a rule, active = well fitted inhibition curve with a large enough effect; inconclusive = small, poorly fitted or top-dose-only effect; inactive = no such curve, though single readings can be large or run the other way. A potency beside an inconclusive call is a rough fit, not a confirmed value.
# Test: qHTS Primary assay for Inhibitors of Plasmodium falciparum Dd2 growth in vitro; note: nearly all actives have a fitted effect of over 65% in size;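 for activity, negative = inhibition: plate controls were DMSO vehicle for no effect and reference drug for full effect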
# Conditions: P. falciparum Dd2 growth, SYBR Green, 72 h; activity, negative = inhibition: at 28.9 µM (top of the series) unless noted; series mostly up to 28.9 µM
# Excerpt: Malaria, a parasitic disease spread to humans through the bite of a Plasmodium infected Anopheles mosquito, continues to be a global health burden affecting millions of people, with an estimated 228 million cases and 405,000 deaths in 2018. Concerns about safety and limitations of current antimalarial treatments strongly emphasize the need to develop new therapeutic options. The scarce number of chemotypes and validated drug targets with efficacy against the liver stage, have hindered development of new antimalarials. To address this, a chemoprophylactic drug discovery effort was conducted through a combined phenotypic high-throughput asexual blood stage and liver stage screen, providing a robust foundation to identify liver-stage active lead chemotypes. Compounds were initially screened against Plasmodium falciparum Dd2 strain parasites using a in vitro SYBRGreen-1 based 72 hr proliferation assay to identify novel chemotypes to advance to liver stage assays. NIH/NCATS Early Translation Branch Assay Submitter (PI): Anton Simeonov Ph.D.
# Malaria-vivax Assay Protocol: PROTOCOL TABLE (as described by Inglese et al., 2007) SEQUENCE No. (e.g., 1, 2, 3, etc.); […] (e.g., Cells, Incubation, Reagent, etc.); VALUE; DESCRIPTION SEQUENCE, Parameter, Description 1; Reagent; 3 uL complete malaria growth medium, 1536 TC treated Black clear bottom plate 2; Controls; 23 nL positive control artesunate (300 nM final) to column 1; Neutral control DMSO to columns 2-4 3; Compound; 23 nL of compounds in dose response concentration (29 uM to 0.5 nM final) 4; Reagent; 5 uL malaria infected red blood cells (2.5% hematocrit final, 0.3% parasitemia 5; Time; 72 hours at 37C (5% O2, 5% CO2, 90% N2; 95% Rh) 6; Reagent; 2 uL lysis buffer/SYBRGreen-1, 25 sec shake immediately following dispense 7; Time; ~16 hours at 37C (5% O2, 5% CO2, 90% N2; 95% Rh) 8; Detector; EnVision (PerkinElmer) bottom read at 485/14nm excitation and 535/25 nm emission NOTES (numbers refer to sequence above): 1; Complete Malaria Growth Media: 1X RPMI-1640 w/L-glutamine, 5.5g/L Albumax II, 367 uM Hypoxanthine, 25 mM HEPES, 0.25% Sodium Bicarbonate, 35 uM Gentamicin sulfate 2; Controls were added using the Kalypsis Pintool (Wako USA) equipped with 1536 pinhead 3; Compounds were added in a 7-point, titration with a high final concentration of 29 uM by Pintool from seven inter-plate titrations of library plates and two DMSO control plates at the beginning and end (see Yasgar et al., 2008). 4; Red blood cells infected with Plasmodium falciparum Dd2 parasites were used. 6; Lysis buffer: 20 mM Tris-HCl, 10 mM EDTA, 0.16% Saponin, 1.6% Triton-X, 10X SYBR Green. REFERENCE: Inglese J, Shamu CE, Guy RK. 2007. Reporting data from high-throughput screening of small-molecule libraries. Nat Chem Biol. doi:10.1038/nchembio0807-438 Yasgar A, Shinn P, Jadhav A, Auld D, Michael S, Zheng W, Austin CP, Inglese J, Simeonov A. 2008. Compound Management for Quantitative High-Throughput Screening. J Lab Autom 13:79-89. doi:10.1016/j.jala.2007.12.004
# Potency is the fitted concentration of half-maximal effect; tags give direction and shape of the fitted curve.
SMILES,"activity, negative = inhibition",Potency,outcome
Cn1ccc(CN2CC(Oc3ccc(F)c(F)c3)C2)c1,inconclusive: -30.4% [inhibitor] [at 44.1 µM],,
Cn1cc(CN2CCCC23CCN(c2ncccn2)CC3)c(-c2ccccc2)n1,,"inconclusive: 3.55 µM [inhibitor, partial curve, poor fit]",
COc1cccc(OC)c1C(=O)Nc1ccc2c(c1)CN(Cc1ccccc1F)C(=O)C(C)O2 (centres undefined),,"inconclusive: 0.891 µM [inhibitor, partial curve, poor fit]",
CCn1c(=O)c2cc(C(=O)NCCCN3CCN(c4ccc(F)cc4)CC3)sc2c2ccccc21,,"inconclusive: 14.1 µM [inhibitor, single point]",
Cc1nc(CN2Cc3nc(OCc4ccc(F)cc4)ccc3OCC2=O)cs1,,"inconclusive: 22.4 µM [inhibitor, single point]",
O=C(NC1CCCC1)c1cc2c(s1)CCN(C(=O)c1ccc(F)cc1)C2,,"inconclusive: 7.08 µM [inhibitor, partial curve]",
CCCc1ccc(S(=O)(=O)N2CCC(c3nnc(-c4cccc(C)c4)o3)CC2)cc1,,active: 11.2 µM,
COc1ccc(Cl)cc1C(=O)Nc1ccc2nc(Nc3cccc(Cl)c3)cc(C)c2c1,,"inconclusive: 3.55 µM [inhibitor, single point]",
CN(C)c1ccc(CN2CCC3(C2)C(=NC2CCCC2)NC(=O)N3c2cccnc2)cc1 (centres undefined),,"inconclusive: 1.26 µM [inhibitor, full curve]",
COc1cc(OC)c(NC(=O)c2c(N3CCCC3=O)c3cc(C)ccc3n2C)cc1Cl,,"inconclusive: 8.91 µM [inhibitor, partial curve]",
COCCN(Cc1nccs1)C(=O)c1oc2ccc(C)cc2c1C,,"inconclusive: 12.6 µM [inhibitor, single point]",
COCCn1c(C)cc(C(=O)N2CCCC(Cc3noc(C4CC4)n3)C2)c1C (centres undefined),,"inconclusive: 1.78 µM [inhibitor, full curve]",
CCOC(=O)c1scc(-c2ccccc2)c1S(=O)(=O)Nc1ccc(N(C)C)cc1,,"inconclusive: 10 µM [inhibitor, single point]",
CC(C)CN(CCCNC(=O)c1cc(-c2ccc(Br)s2)nc2ccccc12)CC(C)C,inconclusive: -165% [inhibitor] [at 5.79 µM],,
O=C(Nc1nonc1-c1ccc(Cl)cc1)c1ccccc1F,,,inactive
COC1C(=O)N(c2cccc(F)c2)C12CCN(C(=O)C1CCOCC1)CC2 (centres undefined),,"inconclusive: 17.8 µM [inhibitor, single point]",
CCOc1ccc(N2CC(c3nc4ccccc4n3CCCOc3ccccc3OC)CC2=O)cc1 (centres undefined),,"inconclusive: 10 µM [inhibitor, single point]",
CN1CCN(c2ccc3ncc(Nc4ccc(Cl)c(C(F)(F)F)c4)n3n2)CC1,,"inconclusive: 2.51 µM [inhibitor, partial curve, poor fit]",
Cc1cnc(C(=O)N2CCC(c3noc(-c4cnccn4)n3)C2)cn1 (centres undefined),,,inactive [at 5.79 µM]
Nc1c(C(=O)Nc2ccc(Cl)c(C(F)(F)F)c2)sc2nc3c(cc12)N1CCC3CC1,,active: 2.82 µM,

SMILES,"activity, negative = inhibition",Potency,outcome
O=C(NCc1ccc(F)cc1)N1CC(Oc2ccc(-c3noc(-c4ccccc4)n3)cc2)C1,,"inconclusive: 2.82 µM [inhibitor, partial curve, poor fit]",
CC1(CNc2ccccc2)COc2ccc(C(=O)NCc3cccs3)cc2N1 (centres undefined),,"inconclusive: 1 µM [inhibitor, full curve, poor fit]",
Cc1cccc2nc(C(=O)N(C)C3CCCN(CCc4ccccc4)C3)cn12 (centres undefined),,,inactive
COc1cc(=O)n2c(c1C(=O)Nc1ccc(C)cc1C)CCCC2,,"inconclusive: 2.51 µM [inhibitor, partial curve, poor fit]",
Cc1ccc(-c2cn3c(n2)CO[C@@H](CNS(=O)(=O)c2cccs2)C3)cc1,,"inconclusive: 25.1 µM [inhibitor, single point]",
Cn1cc(CC(=O)N2CCCc3ncc(C(=O)NCc4ccccc4)cc32)c2ccccc21,,"inconclusive: 11.2 µM [inhibitor, partial curve, poor fit]",
CCOC(=O)c1ccc(NC(=O)c2cnn(-c3ccc(C)cc3C)c2C2CCN(C(=O)OC(C)(C)C)CC2)cc1,,active: 12.6 µM,
COc1ccc(Cl)cc1NC(=O)CSC1=Nc2ccccc2C2=NC(CCC(=O)NCc3ccc(F)cc3)C(=O)N12 (centres undefined),inactive: -22.8%,,
c1ccc(O[C@H]2COCCN(C3CCOCC3)C2)cc1,,,inactive [at 44.1 µM]
CC(=O)N(C)C1CCCc2ccccc21 (centres undefined),,"inconclusive: 0.398 µM [inhibitor, full curve]",
COc1cccc(-c2nc(CS(=O)(=O)CC(=O)NCCc3ccc(OC)cc3OC)c(C)o2)c1,,"inconclusive: 17.8 µM [inhibitor, single point]",
CCCCCCNc1nc2c(c(=O)n(C)c(=O)n2C)n1Cc1cccc(C)c1,,"inconclusive: 10 µM [inhibitor, single point]",
COCCCNC(=O)c1ccc(Cn2c(=O)c3ccccc3n(CC(=O)Nc3c(C)cccc3C)c2=O)cc1,,"inconclusive: 3.98 µM [inhibitor, single point]",
CCOc1cc(C(=O)Nc2ccc3nc(Nc4cccc(Cl)c4)cc(C)c3c2)cc(OCC)c1OCC,,active: 2 µM,
COc1cccc(-n2c(/C=C/c3ccccc3O)nc3ccccc3c2=O)c1,,"inconclusive: 10 µM [inhibitor, single point]",
COCCNC(=O)[C@@H]1C[C@H](Oc2ccccc2)CN1C(=O)C1(c2ccccc2)CC1,,"inconclusive: 11.2 µM [inhibitor, single point]",
Cc1nn2c(C)c(C(=O)N3CCN(c4ccccc4F)CC3)cnc2c1-c1ccc(F)cc1,inactive: 43%,,
CN(CCO)c1ccc(-c2nc(CCCc3ccccc3)no2)cn1,,"inconclusive: 4.47 µM [inhibitor, partial curve, poor fit]",
C=C[C@H]1CN2CC[C@H]1C[C@@H]2CNS(=O)(=O)c1cccc(C#N)c1,,"inconclusive: 7.94 µM [inhibitor, partial curve, poor fit]",
